Measurements published in patent publication US9458483B2, “Compositions comprising a polypeptide having cellulolytic enhancing activity and a bicyclic compound and uses thereof” (Novozymes, Inc., priority 2010, dated 2016).
Read-outs that look alike come from different tables or passages of the source.

Legend:
[1] = target: T1, Thermoascus aurantiacus GH61A polypeptide (Thermoascus aurantiacus, UniProt G3XAP7, N13Y); type: biochemical; settings: AVICEL
Procedure: Milled washed PCS was prepared according to the procedure described below.
Control saccharification reactions containing equivalent methanol-containing buffer concentrations, 2% and 10% (v/v) methanol, or no methanol, were performed on each 96-well plate. […] All experiments were performed in triplicate, unless otherwise indicated.
The filtrates were analyzed for sugar content as described below. […] Data were processed using MICROSOFT EXCEL® software (Microsoft, Richland, Wash., USA), or […]® software (Synergy Software, Reading, Pa., USA).
[formula] where 1.111 represents the mass conversion factor accounting for the hydration of glucose produced from the cellulose polymer. The fractional hydrolysis is defined herein as the conversion expressed as a fraction rather than as a percent (i.e., % conversion/100).
[formula] […] Thus for saccharification reactions where only the presence of a bicyclic compound differs, a difference in GH61 effect can be attributed to the effect of the bicyclic compound on the cellulolytic enhancing effect of the GH61 polypeptide.
The concentration of each compound tested was 1 mM, with the following exceptions: cyanidin chloride (0.52 mM), cyanin chloride (0.26 mM), genistin (0.39 mM), kuromanin chloride (0.34 mM), keracyanin chloride (0.26 mM), and rhamnetin (0.53 mM).

[2] = target: T1, Thermoascus aurantiacus GH61A polypeptide; test: AVICEL cellulolysis by T. reesei cellulase composition with combinations of compounds and T. aurantiacus GH61A polypeptide; type: biochemical; settings: most mixtures of compounds at 1 mM

Molecule: O=c1c(O)c(-c2ccc(O)cc2O)oc2cc(O)cc(O)c12 [morin hydrate]
- GH61 effect ([1]; compound 1 mM, 3 days of hydrolysis): 1.13±0.0644
- GH61 effect ([1]; compound 1 mM, 7 days of hydrolysis): 1.17±0.125

Molecule: Oc1cc(O)c2cc(O)c(-c3ccc(O)c(O)c3)[o+]c2c1.[Cl-] [cyanidin chloride]
- GH61 effect ([1]; compound 0.52 mM, 3 days of hydrolysis): 1.62±0.136
- GH61 effect ([1]; compound 0.52 mM, 7 days of hydrolysis): 1.86±0.171

Molecule: OC[C@H]1O[C@@H](Oc2cc3c(O[C@@H]4O[C@H](CO)[C@@H](O)[C@H](O)[C@H]4O)cc(O)cc3[o+]c2-c2ccc(O)c(O)c2)[C@H](O)[C@@H](O)[C@@H]1O [cyanin chloride]
- GH61 effect ([1]; compound 0.26 mM, 3 days of hydrolysis): 1.12±0.0403
- GH61 effect ([1]; compound 0.26 mM, 7 days of hydrolysis): 1.11±0.0197

B1: T. aurantiacus GH61A polypeptide: GH61A polypeptide having cellulolytic enhancing activity (SEQ ID NO: 14), recombinantly prepared in Aspergillus oryzae JaL250 (protein, listed as Thermoascus aurantiacus)
chain: MSFSKIIATAGVLASASLVAGHGFVQNIVIDGKYYGGYLVNQYPYMSNPPEVIAWSTTATDLGFVDGTGYQTPDIICHRGAKPGALTAPVSPGGTVELQWTPWPDSHHGPVINYLAPCNGDCSTVDKTQLEFFKIAESGLINDDNPPGIWASDNLIAANNSWTVTIPTTIAPGNYVLRHEIIALHSAQNQDGAQNYPQCINLQVTGGGSDNPAGTLGTALYHDTDPGILINIYQKLSSYIIPGPPLYTG
- overall conversion compared among GH61 polypeptides [2]: greatest overall conversion
